Measured values: patent US7517874B2 (priority 2007, dated 2009)
Where two headings read alike, the source gives them in different places.

Biological target: human CB2 receptor (hCB2) (Homo sapiens, UniProt P34972)
Test: cell-based
Type: cell-based
Settings: for +/− HCB2: agonist or inverse agonist at hCB2
[1] = groups >100 nM-10 μM and >10 μM, cAMP, CHO-K1 hCB2, read-out: EC50 HCB2

human CB2 receptor (hCB2), sequence (P34972 whole entry): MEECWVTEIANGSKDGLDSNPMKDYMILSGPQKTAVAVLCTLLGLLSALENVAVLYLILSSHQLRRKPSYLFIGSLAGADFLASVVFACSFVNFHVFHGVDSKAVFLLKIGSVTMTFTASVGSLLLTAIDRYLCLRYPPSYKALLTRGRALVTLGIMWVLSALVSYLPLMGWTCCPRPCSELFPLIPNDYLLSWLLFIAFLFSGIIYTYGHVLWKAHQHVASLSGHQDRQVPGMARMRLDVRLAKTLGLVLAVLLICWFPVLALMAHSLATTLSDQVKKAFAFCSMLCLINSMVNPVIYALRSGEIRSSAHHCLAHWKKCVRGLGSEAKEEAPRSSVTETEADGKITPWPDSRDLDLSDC

C/C=C/c1nc(C(=O)N[C@H](C(=O)NC)C(C)(C)C)c2n1CCN(C)C2 [Compound 243, (S,E)-N-(3,3-dimethyl-1-(methylamino)-1-oxobutan-2-yl)-7-methyl-3-(prop-1-enyl)-5,6,7,8-tetrahydroimidazo[1,5-a]pyrazine-1-carboxamide]
+/− HCB2: +

CNC(=O)[C@@H](NC(=O)c1nc(-c2cccc(C(F)(F)F)c2)n2c1CNCC2)C(C)(C)C [Compound 3, (S)-N-(3,3-dimethyl-1-(methylamino)-1-oxobutan-2-yl)-3-(3-(trifluoromethyl)phenyl)-5,6,7,8-tetrahydroimidazo[1,5-a]pyrazine-1-carboxamide]
EC50: > 10000 nM

CNC(=O)[C@@H](NC(=O)c1nc(-c2ccccc2)n2c1CN(CC1CC1)CC2)C(C)(C)C [Compound 56, (S)-7-(cyclopropylmethyl)-N-(3,3-dimethyl-1-(methylamino)-1-oxobutan-2-yl)-3-phenyl-5,6,7,8-tetrahydroimidazo[1,5-a]pyrazine-1-carboxamide]
+/− HCB2: −

CNC(=O)[C@@H](NC(=O)c1nc(-c2nccs2)n2c1CN(C)CC2)C(C)(C)C [Compound 297, (S)-N-(3,3-dimethyl-1-(methylamino)-1-oxobutan-2-yl)-7-methyl-3-(thiazol-2-yl)-5,6,7,8-tetrahydroimidazo[1,5-a]pyrazine-1-carboxamide]
EC50: > 10000 nM

CNC(=O)[C@@H](NC(=O)c1nc(C2=CCNCC2)n2c1CN(C)CCC2)C(C)(C)C [Compound 460, (S)-N-(3,3-dimethyl-1-(methylamino)-1-oxobutan-2-yl)-8-methyl-3-(1,2,3,6-tetrahydropyridin-4-yl)-6,7,8,9-tetrahydro-5H-imidazo[1,5-a][1,4]diazepine-1-carboxamide]
+/− HCB2: +

CN1CCCn2c(-c3ccccc3)nc(C(=O)N[C@H](C(=O)NCCF)C(C)(C)C)c2C1 [Compound 476, (S)-N-(1-(2-fluoroethylamino)-3,3-dimethyl-1-oxobutan-2-yl)-8-methyl-3-phenyl-6,7,8,9-tetrahydro-5H-imidazo[1,5-a][1,4]diazepine-1-carboxamide]
+/− HCB2: +

CNC(=O)[C@@H](NC(=O)c1nc(-c2ccc(C)c(Cl)c2)n2c1CN(C)CCC2)C(C)(C)C [Compound 334, (S)-3-(3-chloro-4-methylphenyl)-N-(3,3-dimethyl-1-(methylamino)-1-oxobutan-2-yl)-8-methyl-6,7,8,9-tetrahydro-5H-imidazo[1,5-a][1,4]diazepine-1-carboxamide]
+/− HCB2: +

CNC(=O)[C@@H](NC(=O)c1nc(C(O)C2CC2)n2c1CN(C)CC2)C(C)(C)C (stereo partly drawn) [Compound 296, 3-(cyclopropyl(hydroxy)methyl)-N-((S)-3,3-dimethyl-1-(methylamino)-1-oxobutan-2-yl)-7-methyl-5,6,7,8-tetrahydroimidazo[1,5-a]pyrazine-1-carboxamide]
+/− HCB2: +

CNC(=O)[C@@H](NC(=O)c1nc(-c2ccccc2)n2c1CN(c1cncc(Cl)n1)CC2)C(C)(C)C [Compound 300, (S)-7-(6-chloropyrazin-2-yl)-N-(3,3-dimethyl-1-(methylamino)-1-oxobutan-2-yl)-3-phenyl-5,6,7,8-tetrahydroimidazo[1,5-a]pyrazine-1-carboxamide]
+/− HCB2: −

CNC(=O)[C@@H](NC(=O)c1nc(-c2cnc(OC)nc2OC)n2c1CN(C)CCC2)C(C)(C)C [Compound 344, (S)-3-(2,4-dimethoxypyrimidin-5-yl)-N-(3,3-dimethyl-1-(methylamino)-1-oxobutan-2-yl)-8-methyl-6,7,8,9-tetrahydro-5H-imidazo[1,5-a][1,4]diazepine-1-carboxamide]
EC50: > 10000 nM

CNC(=O)[C@@H](NC(=O)c1nc(-c2cc(F)ccc2F)n2c1CN(C)CC2)C(C)(C)C [Compound 250, (S)-3-(2,5-difluorophenyl)-N-(3,3-dimethyl-1-(methylamino)-1-oxobutan-2-yl)-7-methyl-5,6,7,8-tetrahydroimidazo[1,5-a]pyrazine-1-carboxamide]
+/− HCB2: +

COC(=O)N1CCn2c(-c3ccccc3)nc(C(=O)NC3CCCCC3)c2C1 [Compound 187, methyl 1-(cyclohexylcarbamoyl)-3-phenyl-5,6-dihydroimidazo[1,5-a]pyrazine-7(8H)-carboxylate]
EC50 [1]: > 10000 nM

CC(C)CN1CCn2c(-c3ccccc3)nc(C(=O)N[C@@H](C)c3ccccc3)c2C1 [Compound 145, (S)-7-isobutyl-3-phenyl-N-(1-phenylethyl)-5,6,7,8-tetrahydroimidazo[1,5-a]pyrazine-1-carboxamide]
+/− HCB2: −

CNC(=O)[C@@H](NC(=O)c1nc(-c2ccc(OC)c(F)c2)n2c1CN(C)CCC2)C(C)(C)C [Compound 404, (S)-N-(3,3-dimethyl-1-(methylamino)-1-oxobutan-2-yl)-3-(3-fluoro-4-methoxyphenyl)-8-methyl-6,7,8,9-tetrahydro-5H-imidazo[1,5-a][1,4]diazepine-1-carboxamide]
+/− HCB2: +

CNC(=O)[C@@H](NC(=O)c1nc(Cl)n2c1CNCCC2)C(C)(C)C [Compound 597, (S)-3-chloro-N-(3,3-dimethyl-1-(methylamino)-1-oxobutan-2-yl)-6,7,8,9-tetrahydro-5H-imidazo[1,5-a][1,4]diazepine-1-carboxamide]
EC50: > 10000 nM

O=C(NN1CCCCC1)c1nc(-c2ccccc2)n2c1CNCC2 [Compound 44, 3-phenyl-N-(piperidin-1-yl)-5,6,7,8-tetrahydroimidazo[1,5-a]pyrazine-1-carboxamide]
EC50: > 10000 nM

CNC(=O)[C@@H](NC(=O)c1nc(-c2ccc(C(N)=O)c(F)c2)n2c1CN(C)CCC2)C(C)(C)C [Compound 427, (S)-3-(4-carbamoyl-3-fluorophenyl)-N-(3,3-dimethyl-1-(methylamino)-1-oxobutan-2-yl)-8-methyl-6,7,8,9-tetrahydro-5H-imidazo[1,5-a][1,4]diazepine-1-carboxamide]
EC50: > 10000 nM

CNC(=O)[C@@H](NC(=O)c1nc(-c2ccccc2)n2c1CN(C(=O)C1CC1)CC2)C(C)(C)C [Compound 126, (S)-7-(cyclopropanecarbonyl)-N-(3,3-dimethyl-1-(methylamino)-1-oxobutan-2-yl)-3-phenyl-5,6,7,8-tetrahydroimidazo[1,5-a]pyrazine-1-carboxamide]
EC50: > 10000 nM

CN1CCn2c(-c3ccc(Cl)cc3F)nc(C(=O)Nc3ccc(S(=O)(=O)N4CCOCC4)cc3)c2C1 [Compound 219]
EC50 [1]: > 10000 nM

CNC(=O)[C@@H](NC(=O)c1nc(-c2ccc(Cl)cc2F)n2c1CN(C1CCN(C(C)=O)CC1)CCC2)C(C)(C)C [Compound 527, (S)-8-(1-acetylpiperidin-4-yl)-3-(4-chloro-2-fluorophenyl)-N-(3 3-dimethyl-1-(methylamino)-1-oxobutan-2-yl)-6,7,8,9-tetrahydro-5H-imidazo[1,5-a][1,4]diazepine-1-carboxamide]
EC50: > 10000 nM

CC(C)CCNC(=O)c1nc(-c2ccc(Cl)cc2)n2c1CN(CC(C)C)CC2 [Compound 157, 3-(4-chlorophenyl)-7-isobutyl-N-isopentyl-5,6,7,8-tetrahydroimidazo[1,5-a]pyrazine-1-carboxamide]
+/− HCB2: −

CNC(=O)[C@@H](NC(=O)c1nc(/C=C/C(C)(C)C)n2c1CN(C)CC2)C(C)(C)C [Compound 263, (S,E)-N-(3,3-dimethyl-1-(methylamino)-1-oxobutan-2-yl)-3-(3,3-dimethylbut-1-enyl)-7-methyl-5,6,7,8-tetrahydroimidazo[1,5-a]pyrazine-1-carboxamide]
+/− HCB2: +

CC(C)C[C@H](NC(=O)c1nc(-c2cc(Cl)ccc2F)n2c1CN(C)CCC2)C(N)=O [Compound 569, (S)-N-(1-amino-4-methyl-1-oxopentan-2-yl)-3-(5-chloro-2-fluorophenyl)-8-methyl-6,7,8,9-tetrahydro-5H-imidazo[1,5-a][1,4]diazepine-1-carboxamide]
+/− HCB2: +

CNC(=O)[C@@H](NC(=O)c1nc(-c2c(F)cccc2OC)n2c1CN(C)CCC2)C(C)(C)C [Compound 365, N-((S)-3,3-dimethyl-1-(methylamino)-1-oxobutan-2-yl)-3-(2-fluoro-6-methoxyphenyl)-8-methyl-6,7,8,9-tetrahydro-5H-imidazo[1,5-a][1,4]diazepine-1-carboxamide]
+/− HCB2: +

CNC(=O)[C@@H](NC(=O)c1nc(-c2ccc(C(N)=O)cc2)n2c1CN(C)CCC2)C(C)(C)C [Compound 423, (S)-3-(4-carbamoylphenyl)-N-(3,3-dimethyl-1-(methylamino)-1-oxobutan-2-yl)-8-methyl-6,7,8,9-tetrahydro-5H-imidazo[1,5-a][1,4]diazepine-1-carboxamide]
EC50: > 10000 nM

C[C@@H](NC(=O)c1nc(-c2ccccc2)n2c1CN(C)CC2)C(C)(C)C [Compound 50, (R)-N-(3,3-dimethylbutan-2-yl)-7-methyl-3-phenyl-5,6,7,8-tetrahydroimidazo[1,5-a]pyrazine-1-carboxamide]
+/− HCB2: +

CNC(=O)[C@@H](NC(=O)c1nc(-c2ccc(F)cc2)n2c1CNCC2)C(C)(C)C [Compound 6, (S)-N-(3,3-dimethyl-1-(methylamino)-1-oxobutan-2-yl)-3-(4-fluorophenyl)-5,6,7,8-tetrahydroimidazo[1,5-a]pyrazine-1-carboxamide]
+/− HCB2: +

C[C@H](NC(=O)c1nc(-c2ccccc2)n2c1CNCC2)c1ccccc1 [Compound 40, (S)-3-phenyl-N-(1-phenylethyl)-5,6,7,8-tetrahydroimidazo[1,5-a]pyrazine-1-carboxamide]
+/− HCB2: +

CNC(=O)[C@@H](NC(=O)c1nc(-c2ccc(-c3ccccc3)c(F)c2)n2c1CN(C)CCC2)C(C)(C)C [Compound 419, (S)-N-(3,3-dimethyl-1-(methylamino)-1-oxobutan-2-yl)-3-(2-fluorobiphenyl-4-yl)-8-methyl-6,7,8,9-tetrahydro-5H-imidazo[1,5-a][1,4]diazepine-1-carboxamide]
EC50: > 10000 nM

CN1CCCn2c(-c3ccc(F)cc3F)nc(C(=O)N[C@H](C(=O)N(C)C)C(C)(C)C)c2C1 [Compound 563, (S)-3-(2,4-difluorophenyl)-N-(1-(dimethylamino)-3,3-dimethyl-1-oxobutan-2-yl)-8-methyl-6,7,8,9-tetrahydro-5H-imidazo[1,5-a][1,4]diazepine-1-carboxamide]
+/− HCB2: +
